SMILES strings stand for the structures.

The test has as its system C57/BL6 mice. The note with it: C57/BL6, sc.

On to `CC[C@@H]1CN2CC[C@]3(Nc4cccc(OC)c4C3=O)C2C[C@@H]1/C(=C\OC)C(=O)OC` (stereo partly drawn) [VM1502, (E)-methyl 2-((1'S,6'S,7'S)-6′-ethyl-4-methoxy-3-oxo-3′,5′,6′,7′,8′,8a′-hexahydro-2′H-spiro[indoline-2,1′-indolizine]-7′-yl)-3-methoxyacrylate], for which the “analgesia in E1-E11 double MOR-1 knockout mice” value is “eliminated in MOR-1 knockout mice”.

These data come from patent publication US12617790B2, “Mitragynine analogs and uses thereof” (Memorial Sloan-Kettering Cancer Center, priority 2015, dated 2026).
